Here are results for 43 compounds from ChEMBL document CHEMBL4888484, “Replenishing the malaria drug discovery pipeline: Screening and hit evaluation of the MMV Hit Generation Library 1 (HGL1) against asexual blood stage Plasmodium falciparum ,using a nano luciferase reporter read-out” (2022).

Each structure is given as a SMILES string. Hit rate of the full screen: of about 150,000 compounds, about 540 (0.36%) showed an effect of 50% or more. This is one part of the list.

For the experiment, the system named is Plasmodium falciparum. The experiment in a line: Primary screen in NF54 nanoGlo assay, in single point, at 2uM, 72h; a lower Z score goes with more inhibition. Format: functional, Erythrocyte. As to conditions: timepoint 72 hour.
Turning to `Cc1cc(C)nc(NC2CCCCCC2C(N)=O)n1` (stereo unspecified), the “% Inhibition” value worked out at 4% and the Z score was -0.58.
As to `Cc1ncsc1C(=O)NCC1CN(S(=O)(=O)c2ccccc2)C2CCN1C2` (stereo unspecified), the “% Inhibition” value is -13% and the Z score was found to be 1.46.
The like results for `CC(C)c1noc([C@@H]2CCCN2S(=O)(=O)CCOc2ccccc2F)n1` were, in that order, -17% and 3.67.
The like results for `CCc1ncnc(NCCCS(C)(=O)=O)c1F` were, in that order, 5% and -0.72.
For `COc1ccc(CC(=O)Nc2ccc(N3CCN(C(=O)C4c5ccccc5Oc5ccccc54)CC3)cc2)cc1`, the “% Inhibition” value stood at 10% and the Z score was -1.66.
Turning to `Cc1c([C@H](C)NCc2nc3ccccc3n2CCC(C)C)cnn1-c1ccccc1`, the “% Inhibition” value is -7% and the Z score came to 0.88.
As for `O=C(Nc1cc(F)c2nc(N3CCOCC3)ccc2c1)c1ccccc1Cl`, the “% Inhibition” value is on record as -1% and the Z score is given as 0.16.
The corresponding values for `O=C(c1coc2ccccc12)N1CCCCCCC1` are -11% and 1.96.
The corresponding values for `CN1CCC(NC(=O)N[C@@H](c2ccccc2)c2ccc(Br)cc2F)CC1` are -26% and 2.61.
Regarding `O=C(C1CC12CCC2)N1CC2CCC2(Nc2ncnc3scnc23)C1` (stereo unspecified), the “% Inhibition” value was -10% and the Z score is on record as 1.07.
The like results for `CCOCCC(=O)Nc1csc2nc(=O)c(C)nn12` were, in that order, -5% and 0.73.
The corresponding values for `Cc1cccnc1CC(NC1CCOc2ccccc21)C(F)(F)F` (stereo unspecified) are -5% and 0.64.
In the case of `CC1CCCCC1NC(=O)CON=C(N)CN1C(C)CCCC1C` (stereo unspecified), the “% Inhibition” value was -1% and the Z score worked out at 0.19.
For `CC1CCN(c2cc3c(cc2F)c(=O)c(S(=O)(=O)c2cccc(Cl)c2)cn3Cc2ccccc2)CC1`, the “% Inhibition” value is -12% and the Z score is 1.46.
On to `COCCn1cc(NC(=O)c2cn3c(n2)C[C@@H](C)CC3)cn1`, for which the “% Inhibition” value is -9% and the Z score turned out to be 0.75.
The corresponding values for `Cc1n[nH]c(C2CC2)c1C(=O)N1CCn2nc(CO)cc2C1` are -2% and 0.26.
The corresponding values for `CC[C@H]1CN(C)c2ccccc2CN1C(=O)CCS(=O)(=O)c1ccc2c(c1)CCC2` are 5% and -0.79.
The like results for `Cc1cc(-c2cncc(CN3CCC(C(N)=O)CC3)c2)ccc1F` were, in that order, -2% and 0.18.
As for `Cc1ccc(-c2nc3ccc(-c4ccccc4Cl)cn3c2CN2CCN(C(=O)Nc3ccccc3C)CC2)cc1`, the “% Inhibition” value is -5% and the Z score amounted to 0.68.
The corresponding values for `C=CCc1cc(C(=O)N2C[C@@H]3CN(CC)C[C@]3(C(=O)O)C2)ccc1OC` are -6% and 0.76.
The corresponding values for `CC1CN2CCCC2CN1S(=O)(=O)N1CCCCC1` (stereo unspecified) are 2% and -0.3.
The like results for `CC(C(=O)NC(c1cccnc1)C1CCOCC1)n1cccn1` (stereo unspecified) were, in that order, -1% and 0.28.
As to `O=C(NCc1ccc(Cl)cc1)c1cc(OCc2ccccc2)no1`, the “% Inhibition” value is -7% and the Z score came out at 1.38.
The like results for `CO[C@H]1CCN(C(=O)c2nn3cc(C)cnc3c2Cl)C1` were, in that order, -17% and 1.66.
The corresponding values for `Cc1nc(C)c(F)c(N[C@H]2CCc3nc(C(C)(C)C)cn3C2)n1` are -3% and 0.24.
On to `O=C(NCc1ccccn1)c1ccc(CN2CCOCC2)cc1`, for which the “% Inhibition” value stood at 35% and the Z score was -3.98.
Consider `Cc1cc(C(=O)N2CCc3c(c(C(=O)NCc4nccs4)nn3Cc3ccccc3)C2)nc(C)n1`, for which the “% Inhibition” value was -7% and the Z score came out at 0.81.
Regarding `O=c1[nH]c([C@H]2CCC(F)(F)C2)nc2cc(F)ccc12`, the “% Inhibition” value is -19% and the Z score is on record as 1.92.
On to `COCCOc1ccc2c(c1)NC(=O)C[C@H]2c1ccc(Cl)s1`, for which the “% Inhibition” value is -16% and the Z score was 2.79.
The like results for `O=C1NCCC[C@@H]1NC(=O)[C@@H]1CN(C(=O)C2CCCCC2)CCN1C(=O)Nc1ccccc1` were, in that order, 36% and -1.3.
In the case of `Cc1[nH]nc(C(=O)N2CCC[C@@H]2CF)c1C`, the “% Inhibition” value is given as -9% and the Z score is listed as 1.29.
Take `O=C(Nc1cnn2c1NCCC2)c1ccc(OCC(=O)N2CCCCC2)cc1`: the “% Inhibition” value is recorded as -14% and the Z score is 1.33.
The like results for `CC[C@@]1(C2CCNCC2)NC(=O)N(C/C=C/c2ccccc2)C1=O` were, in that order, -4% and 0.6.
As for `CC(C)O[C@H]1C[C@@H](NC(=O)c2cnc(-c3cnn(C)c3)s2)C1`, the “% Inhibition” value is reported as -12% and the Z score is 1.49.
For the compound `CC(C)(C)OC(=O)N1CC([C@@H]2CCCNC2=O)C1`, the “% Inhibition” value is recorded as -10% and the Z score was found to be 1.73.
For `Cc1nc[nH]c1-c1nccn1Cc1scnc1-c1ccccc1`, the “% Inhibition” value is -12% and the Z score turned out to be 1.54.
Regarding `COc1ccc(OC)c(S(=O)(=O)N2C[C@H](CN(C)C)C3(CCCCC3)C2)c1`, the “% Inhibition” value is recorded as 9% and the Z score is on record as -1.34.
Consider `CCOCC(C)CS(=O)(=O)NCCCOCC1CCCO1` (stereo unspecified), for which the “% Inhibition” value is listed as -7% and the Z score worked out at 1.43.
For the compound `O=C(NC[C@H]1CCCO1)Nc1ccnn1C1CCCC1`, the “% Inhibition” value came out at 5% and the Z score was -0.73.
Take `Cc1cc(O)ccc1C(=O)NC[C@@H](C(C)C)N(C)C`: the “% Inhibition” value was 1% and the Z score is reported as -0.18.
Regarding `N#Cc1cccc(NC(=O)Cn2c(=O)n(CCc3cccs3)c(=O)c3ccccc32)c1`, the “% Inhibition” value amounted to 30% and the Z score was -3.37.
As for `Clc1cnn(Cc2nc(-c3ccoc3)no2)c1`, the “% Inhibition” value was -21% and the Z score is 2.91.
With `CCOc1cccc2[nH]cc(CCNC(=O)Nc3ccc4[nH]c(=O)[nH]c4c3)c12`, the “% Inhibition” value was found to be 3% and the Z score was -0.29.
